# Assay results from the supplement of paper PMC3334620.
# Whole data set: some 33,000 sequences, median “E-score (-0.5 to 0.5)” near -0.011, cut for the highest 2% near 0.28. The list shows a part of the results.
# Target: T1, Gcr1 (UniProt P07261)
# T1 sequence: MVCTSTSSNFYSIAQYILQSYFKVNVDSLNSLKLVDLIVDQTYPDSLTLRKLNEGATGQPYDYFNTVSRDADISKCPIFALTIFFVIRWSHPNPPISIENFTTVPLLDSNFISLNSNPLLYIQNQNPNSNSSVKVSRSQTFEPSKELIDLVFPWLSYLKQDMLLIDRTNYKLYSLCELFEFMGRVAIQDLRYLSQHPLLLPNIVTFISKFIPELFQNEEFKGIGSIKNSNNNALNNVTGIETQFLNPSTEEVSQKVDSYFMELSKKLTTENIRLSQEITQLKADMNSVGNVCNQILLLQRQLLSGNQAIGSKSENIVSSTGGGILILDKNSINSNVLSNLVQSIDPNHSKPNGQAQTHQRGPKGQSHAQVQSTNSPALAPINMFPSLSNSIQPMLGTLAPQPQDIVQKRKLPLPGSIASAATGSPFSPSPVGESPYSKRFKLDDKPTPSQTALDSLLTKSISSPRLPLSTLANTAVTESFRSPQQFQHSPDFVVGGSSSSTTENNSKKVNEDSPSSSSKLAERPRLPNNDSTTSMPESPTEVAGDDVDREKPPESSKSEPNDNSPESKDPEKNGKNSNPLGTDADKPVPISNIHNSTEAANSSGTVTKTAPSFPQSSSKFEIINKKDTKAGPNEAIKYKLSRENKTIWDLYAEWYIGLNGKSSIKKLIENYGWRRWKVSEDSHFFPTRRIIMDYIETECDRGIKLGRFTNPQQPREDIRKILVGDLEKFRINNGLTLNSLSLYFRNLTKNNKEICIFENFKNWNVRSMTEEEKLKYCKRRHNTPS
# Assay: PBM E-score (8-mer binding enrichment) (E-score (-0.5 to 0.5)); higher = stronger / more preferred TF binding; most listed sequences are background and not binding sites
# Conditions: protein concentration: 100 nM; construct: GST-full length
# Procedure: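 Universal 'all 10-mer' protein binding microarrays (Agilent AMADID 015681) probed with GST-tagged S. cerevisiae TFs (full-length or DBD) made by in vitro transcription/translation (PURExpress), about 100-200 nM. Bound TF was detected with fluorescent anti-GST. Each ungapped 8-mer (which stands for itself and its reverse complement) is scored by the PBM enrichment score (E-score), a modified Wilcoxon-Mann-Whitney statistic from -0.5 to +0.5, computed with the Universal PBM Analysis Suite. Scale: above 0.35 generally sequence-specific binding.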
row,Sequence,PBM E-score
1,GAGCACGC,-0.0146
2,AAAGTCGA,-0.174
3,CGCGCAGC,0.202
4,CTCTGATA,-0.127
5,CCTATTCG,0.0671
6,TAGCCCTA,-0.0566
7,ACTCGGTA,-0.113
8,AAGATCAG,0.129
9,CATACTTA,0.0988
10,GGCTCTCA,-0.0408
11,CCCTCCGA,-0.0812
12,AGTGATTA,0.195
13,AATCTGAC,-0.129
14,TAATGAGA,-0.128
15,CCTGGTCC,-0.142
16,TAGGGCGA,-0.0267
17,CAAGTCTA,0.0792
18,ATCCCCAA,0.0543
19,ATAGAAAT,0.0208
20,CGACTATC,-0.222
21,GGTTGCAC,0.00488
22,GAGCCTCA,-0.0479
23,CTAAGGAG,0.171
24,CCCGTATC,0.123
25,TAGTCACA,-0.155

row,Sequence,PBM E-score
1,GCCGGAAA,0.0227
2,CCCCCGAA,-0.242
3,AAAGGAAT,0.212
4,AGCTGGCC,-0.142
5,GCGATTTA,0.0336
6,GATAGGGC,-0.111
7,GAATCTAA,0.241
8,CATCCTAC,0.0683
9,AGCCACTG,0.11
10,CACGGCGC,0.0796
11,AACACAGA,-0.193
12,CTGGTTGC,0.288
13,GAATTAAC,0.0789
14,CAGTAGAC,-0.134
15,GGTGGTTA,0.0911
16,CCGTTGTC,0.0332
17,GGGCTCGA,-0.0878
18,AAAATTGG,0.316
19,ACGGCTAT,-0.169
20,AAGGACAC,0.0121
21,ACTGTCGC,-0.161
22,GGTAAAAA,0.0355
23,TCTGATAA,0.107
24,TATCCAAA,0.0902
25,GCTAAAGA,0.0814

row,Sequence,PBM E-score
1,CTCTGTTC,-0.0161
2,CTAGAAAA,0.114
3,CGATGGGC,-0.0735
4,CAATACTC,0.107
5,ATGAGCTC,0.0604
6,CACGCGGC,0.0651
7,GTCGCAAC,0.0865
8,CTAACATA,-0.048
9,AAAGATTC,0.19
10,AAGGTGAC,0.0235
11,GGATAATA,0.0492
12,GGTGGAAA,-0.0398
13,GTGCCTCA,-0.167
14,GTCCTTTA,-0.00269
15,CGCGCCAG,0.0313
16,GGCGGGAC,0.0458
17,ACCTCGTC,0.00754
18,ACGTAGAT,-0.0123
19,GATTCCAC,0.382
20,AGGACCAC,-0.00932
21,CACAAAGA,0.0455
22,GGCTTCGA,0.196
23,GACGCTTA,0.153
24,ACACTAGG,-0.176
25,CTCCATAC,0.0401

row,Sequence,PBM E-score
1,GGGTACAC,-0.359
2,GCGCGTGA,0.0577
3,AAAACCAC,0.0465
4,CTCTTGTA,0.0515
5,CCTCTCTA,-0.113
6,GGCACGGA,0.0772
7,GGGAGCAA,-0.0386
8,AGTCGTAA,-0.133
9,GCCACGGC,-0.17
10,GCTCCAGC,0.0257
11,CATACAGC,-0.26
12,CCCAAGCA,-0.0163
13,GAAGCTCC,0.309
14,GATGAGCC,-0.29
15,GACGGTAC,-0.0733
16,CAGATCTA,-0.0866
17,CACCATGA,0.0189
18,ATCACATA,-0.0145
19,CACGGGTC,-0.138
20,CGCCCCTC,0.11
21,ACAACGTC,-0.0807
22,AGGTATGA,0.0361
23,ATGCAACG,-0.128
24,ATGATAAC,-0.072
25,GGGTGTTA,-0.143

row,Sequence,PBM E-score
1,AGACGCTG,0.254
2,GCCGTCCA,0.128
3,CATCGCAG,-0.106
4,ATAGATTA,0.0365
5,GCCCGAAA,0.206
6,CCGCTTTA,0.207
7,ACTGATCA,-0.148
8,AATTGCTC,-0.0937
9,CGCGAACA,-0.00841
10,CTTTCCGA,-0.029
11,ATGACCGC,-0.267
12,CCGTTATC,0.0604
13,AGCGAAGG,0.0516
14,CTCCCTAA,0.0072
15,AATGCTCA,-0.114
16,AGATTATC,-0.00826
17,ATTACCGA,-0.0014
18,AGTCCACG,0.0254
19,CACATTCG,0.0517
20,ATCGGTGA,-0.138
21,AACGACAA,0.0507
22,AAATGATG,0.115
23,CCCTAGCG,-0.0132
24,ACAATCAA,0.0129
25,GACGGAGC,-0.124

row,Sequence,PBM E-score
1,CAGAAAAC,-0.144
2,ACGGCTCG,-0.105
3,GTCAACAC,-0.0186
4,AATGTACT,-0.1
5,CTAGTCCC,-0.166
6,CAACAGAC,0.0712
7,TGACGGCA,-0.137
8,CACCGGTA,0.0678
9,TATTCGAA,-0.0514
10,CAGCTGTA,-0.0364
11,GAGTCCAA,0.0728
12,GTACGCAC,-0.0893
13,ATCACTAG,-0.0141
14,GGTACACC,-0.189
15,AATAGAAT,0.0285
16,CCATCGTC,-0.127
17,CACTGGTA,0.194
18,AGCAGGCT,-0.17
19,ATCGCCCG,-0.236
20,ACCGGTCA,0.0157
21,CCAGAACG,-3e-05
22,CTTGAGTC,-0.0939
23,ATAGAGCG,-0.108
24,ATGGTGCA,-0.0783
25,ACTGTCAA,-0.0803

row,Sequence,PBM E-score
1,CTTACATC,0.115
2,TACCGTGA,0.0127
3,GAGACGGA,-0.114
4,AATTGCCC,-0.0306
5,CTGACTTA,0.0168
6,ACTTCTCT,0.0365
7,AAAGGTGA,-0.0123
8,GGATTGCA,0.0824
9,GGCGAGCA,-0.156
10,GTCTAAAA,-0.0626
11,CCGGTGAG,0.079
12,ACGTTTTG,0.0803
13,CGCGGTTA,-0.0967
14,AGTATGAT,-0.00344
15,TCATCGAA,-0.267
16,CCGATCGC,-0.182
17,CGAACACA,0.0367
18,AGAGAATC,-0.0452
19,GGGAGATA,-0.0605
20,AATCGTGA,0.0622
21,CGGCGACG,0.00981
22,CGCGTTAA,-0.167
23,CCTATCCG,-0.106
24,ACCGTAGG,-0.161
25,CACCCCTG,-0.0447

row,Sequence,PBM E-score
1,AATCGTCA,-0.179
2,GCCCGCGC,-0.0425
3,CAGGCAGG,-0.143
4,GCTAATAA,0.2
5,GATGATAC,0.00031
6,TACATACA,0.0379
7,ATAAACGG,0.113
8,AGAAAAGG,0.165
9,CAATCGGA,0.112
10,CACGTCGG,-0.207
11,AGTGTCGG,-0.135
12,CCTGTACG,-0.0656
13,GATGAGGC,-0.0834
14,AGTGGTTC,0.0961
15,TTACCAAA,0.158
16,ATAAAAGC,0.0728
17,CACGCCAA,-0.0834
18,GACGTATA,0.0663
19,ACGTCAGT,-0.233
20,ACCGATAA,-0.0638
21,AGCCCTTA,-0.137
22,GTCGTAAC,-0.0346
23,ATAAGTTA,0.0916
24,GGTAATAC,-0.00341
25,AGGGTCAA,-0.0952

row,Sequence,PBM E-score
1,CCAGCAGC,0.272
2,GCCTCTAC,0.129
3,GAAGCGCA,0.129
4,ATGCTGCC,0.0147
5,CCGAGAAA,0.15
6,GAATTCCC,0.116
7,CCTTGCCA,-0.0989
8,ATACTAAG,0.0439
9,AGCTCTAC,-0.198
10,ACTAGCAG,-0.054
11,CTGTAGTC,-0.0778
12,CGCGTGCA,-0.0886
13,CGAATCAA,-0.0457
14,CAACCATA,0.208
15,CTCAGTCC,-0.206
16,CGCTAAGA,-0.00114
17,ATGCATAG,-0.105
18,CAGCTATA,0.181
19,CCGTGTAG,-0.0596
